Among the data in PubChem BioAssay AID1346428 (National Center for Advancing Translational Sciences (NCATS), 2018) are activation values, retold here.

Among all 48,000 compounds or so, about 1,200 (2.5%) were called active. Inconclusive results (about 2%) are left out.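 How the source made its calls: active means activation of at least 60% and not above a set upper limit (about 1 call in 100 departs from these limits); inconclusive means activation of 40% to 60%, or above that upper limit; inactive means activation under 40%.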 Some of the results follow. Where a SMILES comes first, the peptide text is derived from it. [ ]: non-standard residue; d: D form. The star is where a group is joined. Sta = CC(C)C[C@H](N)[C@@H](O)CC(=O)O; Isovaleryl = CC(C)CC(=O)*

UniProt O75388, sequence (O75388 whole entry, looked up): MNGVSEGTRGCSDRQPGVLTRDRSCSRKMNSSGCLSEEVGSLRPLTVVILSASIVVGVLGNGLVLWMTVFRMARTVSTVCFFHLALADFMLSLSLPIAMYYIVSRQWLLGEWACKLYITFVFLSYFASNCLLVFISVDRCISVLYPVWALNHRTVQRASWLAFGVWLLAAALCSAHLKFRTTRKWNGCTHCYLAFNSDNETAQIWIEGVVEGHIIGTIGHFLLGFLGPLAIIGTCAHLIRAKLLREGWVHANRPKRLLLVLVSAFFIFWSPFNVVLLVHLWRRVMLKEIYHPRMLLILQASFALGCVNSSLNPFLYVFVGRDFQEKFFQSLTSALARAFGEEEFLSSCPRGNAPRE

The experiment concerns the target Probable G-protein coupled receptor 32 (Homo sapiens) (UniProt O75388). The experiment in a line: qHTS for Agonists of Human Resolvin D1 Receptor DRV1. The note with it: CHO-K1 GPR32 beta-arrestin PathHunter luminescence, 90 min; at 76.9 µM; hits give high values; zero percent set by DMSO-only wells. Put shortly:
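Using DMSO wells as EC0, agonist-induced signal was taken as chemiluminescence from beta-Gal reconstituted upon beta-arrestin recruitment to GPR32 in CHO-K1 cells after 90 min compound treatment.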
Turning to `Clc1ccccc1Cn1c(-c2cccs2)nc2ccccc21`, the activation was inactive: 11.7%.
For `O=C(c1cc(-c2ccc(Cl)cc2)n[nH]1)N1CCN(S(=O)(=O)c2ccc(Br)s2)CC1`, the activation was inactive: 4.17%.
In the case of `CCOC(=O)c1c(C)[nH]c(C)c1S(=O)(=O)N1CCN(c2cc(Cl)ccc2C)CC1`, the activation is inactive: 10.3%.
For `CCOC(=O)c1c(-c2ccc(C)cc2)csc1NC(=O)c1cc(-c2ccc(OC)cc2)on1` the value was inactive: 19.5%; for `CCc1cccc(NC(=O)c2ccc3c(c2)N(Cc2cccc(Cl)c2)C(=O)c2ccccc2S3=O)c1` (stereo unspecified), inactive: -7.12%.
As for `Cc1cccc(N(C)C(=O)CCS(=O)(=O)c2ccc3c(c2)n(C)c(=O)c(=O)n3C)c1`, the figure is inactive: -17.9%; as for `Cc1cc(Nc2cccc(C(=O)O)c2)n2nc(C)nc2n1`, inactive: 3.33%; as for `COc1ccc(CCNS(=O)(=O)c2c(C)nc3sc(C)cn3c2=O)cc1OC`, inactive: -3.3%.
For `Cc1cccc(NC(=O)CN(C)S(=O)(=O)c2ccc3c(c2)c(=O)n(C)c(=O)n3C)c1C` the value was inactive: -3.16%.
As for `COc1ccc(CCNC(=O)c2ccc3c(c2)N=C(C)c2ccccc2S3)cc1OC`, the activation was inactive: -5.01%.
In the case of `COc1ccc(-c2nc3ccccc3o2)cc1NC(=O)c1cccnc1`, the activation was active: 86.1%.
As for `CCCn1c2ccccc2c2cnn(CC(=O)NCCN(CC)CC)c(=O)c21`, the figure is inactive: -17%.
As to `COc1ccc(NC(=O)NC(C)c2c(-n3cccc3)sc(C)c2C)cc1OC` (stereo unspecified), the activation is inactive: -17.6%.
For the molecule `CCOc1c(Cl)cc(CNc2ccc3[nH]c(=O)[nH]c3c2)cc1OC`, the activation is active: 85.3%.
Turning to `CCCCOc1ccc(C(=O)Nc2cc(-c3cn4cccnc4n3)ccc2OC)cc1`, the activation was inactive: -0.298%.
In the case of `Cc1ccc(CNC(=O)c2ccc3c(c2)c(C)c(C)n3Cc2ccc(Cl)cc2)o1`, the activation was inactive: -29.7%.
Turning to `COc1cc(-c2cc(OC)c3c(C)oc(C)c3c(=O)c2)ccc1OC(=O)c1cccc(C)c1`, the activation is inactive: -18.2%.
For `Cc1nn(S(=O)(=O)c2ccc(F)cc2)c(C)c1S(=O)(=O)N1CCCCCC1` the value was inactive: -5.61%; for `CCCc1cc(=O)[nH]c(SCc2nc(-c3ccc(OCC)cc3)no2)n1`, inactive: -12.1%; for `Cc1ccc(-c2noc(-c3ccc(N4CCCC4)c([N+](=O)[O-])c3)n2)cc1`, inactive: 17.5%.
As for `CC(NN)c1ccccc1` (stereo unspecified), the figure is inactive: 5.43%; as for `Cc1ccc(C(=O)Nc2c(C(=O)Nc3ccc(C)c(C)c3)sc3nc(C)cc(C)c23)cc1`, inactive: -10.6%; as for `CCOc1ccc(C2C(C(=O)Nc3ccc(OC)cc3)=C(C)Nc3nc(CCCO)nn32)cc1` (stereo unspecified), inactive: -14.1%.
Consider `COc1ccc(NC(=O)C2CCN(c3cc(C)nc4c(-c5ccc(Cl)cc5)c(C)nn34)CC2)cc1`, for which the activation was inactive: -6.17%.
As to `CCc1cccc(C)c1NC(=O)CSc1nc2ccncc2[nH]1`, the activation was inactive: -2.95%.
For `Cc1c(-c2ccccc2)c(=O)oc2c(CN3CCOCC3)c(O)ccc12` the value was inactive: -7.51%; for `Cc1ccccc1CN1CCCN(CC(=O)Nc2ccc(F)cc2)S1(=O)=O`, inactive: 4.89%.
As for `Cc1cccc(NC(=O)c2cn(-c3ccccc3)nc2-c2ccccc2)c1C`, the figure is inactive: -0.972%.
For `COc1cccc(NS(=O)(=O)c2ccc3[nH]cc(C(=O)NC(C)c4ccccc4)c(=O)c3c2)c1` (stereo unspecified) the value was inactive: -22.7%; for `CCOC(=O)C1CCN(Cc2cn3c(-c4ccc(OC)cc4)nnc3s2)CC1`, inactive: 5.11%; for `Cc1ccc(OCCCCn2c(-c3ccc(Cl)cc3)nc3ccccc3c2=O)cc1`, inactive: 8.42%.
For the molecule `CCOC(=O)c1c(C)oc2nc(C)nc(NCCc3ccc(Cl)cc3)c12`, the activation is inactive: 4.45%.
For `Cc1ccc(NC(=O)Cn2c(=O)n(Cc3ccc4c(c3)OCO4)c(=O)c3oc4ccccc4c32)cc1C` the value was inactive: -13.7%; for `Cn1c(=O)oc2cc(S(=O)(=O)NC(Cc3ccccc3)C(=O)Nc3ccc(F)c(Cl)c3)ccc21` (stereo unspecified), inactive: 1.74%.
For `Cc1ccc(/C=C/C(=O)Nc2ccc3nc(N4CCC(C)CC4)cc(C)c3c2)cc1` the value was inactive: -7.53%; for `CO[C@@]12[C@H](COC(N)=O)C3=C(C(=O)C(C)=C(N)C3=O)N1C[C@@H]1N[C@@H]12`, inactive: -21.5%.
`CCOc1ccc(C(=O)Nc2ccc3nc(N(CC)CC)cc(C)c3c2)cc1`: the activation is inactive: 22.5%.
For `Cc1cc(N2CCC(C(=O)Nc3ccc(F)cc3F)CC2)n2nc(C)c(-c3ccc(Cl)cc3)c2n1` the value was inactive: -5.48%.
Regarding `CCN(CC)c1ccc(NC(=O)CN2C(=O)c3cccnc3Sc3ccccc32)c(C)c1`, the activation was inactive: -21.5%.
On to `COCCN1Cc2cccc(C(=O)Nc3ccc(Cl)cc3Cl)c2C1=O`, for which the activation was inactive: 15.3%.
For `C[C@H](O)C(=O)Nc1c(I)c(C(=O)NC(CO)CO)c(I)c(C(=O)NC(CO)CO)c1I` the value was inactive: 1.16%; for `CCOc1cc(C2C(C(=O)OC)=C(C)NC3=C2C(=O)c2ccccc23)c(Br)cc1O` (stereo unspecified), inactive: -50.5%; for `COc1ccc2oc(-c3ccc(C)c(NC(=O)CSc4ccc(Cl)cc4)c3)nc2c1`, inactive: -6.15%.
For `CC(=O)N1CCc2c(sc3c2c(=O)n(CCc2ccccc2)c(=O)n3Cc2cccc(C)c2)C1` the value was inactive: -6.97%; for `O=c1c(=O)n(Cc2c(F)cccc2Cl)ccn1Cc1ccccc1`, inactive: -19.6%.
As for `COc1ccc(N2CCN(C3C(=O)c4ccccc4N3C(C)=O)CC2)cc1` (stereo unspecified), the figure is inactive: -16.4%.
For `Cc1ccc(-c2c3c(=O)n(C)c(=O)n(C)c3cn2-c2cc(C)ccc2O)cc1`, the activation is inactive: -19.9%.
As for `COc1cccc(NC(=O)Cn2c(=O)n(CC(=O)NCCc3ccccc3)c(=O)c3sccc32)c1`, the figure is inactive: -16.5%; as for `Cc1c(Cl)cccc1NC(=O)CSc1nc(=O)n(Cc2cccnc2)c2c1CCC2`, inactive: -1.39%.
With `Cc1cc(Cl)ccc1NS(=O)(=O)c1ccc2c(c1)CC(C)N2C(=O)C1CCC1` (stereo unspecified), the activation is inactive: 10.6%.
For `O=C1CC(c2nc(-c3ccccc3)no2)CN1c1ccc2c(c1)OCCO2` (stereo unspecified) the value was inactive: 11.6%.
With `COC(=O)C1CCN(C(c2ccccc2)c2sc3nc(-c4ccco4)nn3c2O)CC1` (stereo unspecified), the activation was inactive: -8.31%.
In the case of `Cc1c(Cl)cccc1-n1ncc(C(=O)Nc2ccc(F)cc2F)c1C1CCN(C(=O)OC(C)(C)C)CC1`, the activation was inactive: -10.1%.
Regarding `Cc1ccc(Cn2cc(S(=O)(=O)c3ccc(C)cc3)c(=O)c3cc(F)c(N4CCCC4)cc32)cc1`, the activation is inactive: 3.72%.
`Cc1ccc(CNC(=O)C2CCN(C(=O)c3cnn(-c4ccccc4)c3-n3cccc3)CC2)cc1`: the activation was inactive: 1.56%.
As for `CCOc1cccc(NC(=O)c2ccc(F)c(S(=O)(=O)N(CC)c3cccc(C)c3)c2)c1`, the figure is inactive: -27.8%; as for `Cc1cc(C)cc(NC(=O)Cn2c3ncccc3c(=O)n2-c2ccc(C)c(C)c2)c1`, inactive: -21.7%.
Regarding `N[C@H](C(=O)O)c1cc(O)cc(O)c1`, the activation was inactive: 12.5%.
As for `O=C(NCc1ccccc1)c1ccc2c(c1)nc1n2CCCCC1`, the activation is inactive: -16.8%.
`O=C(Cn1cnc2nc3c(cc2c1=O)CCCC3)N1CCN(c2ccccc2)CC1`: the activation was inactive: -6.09%.
Regarding `Cc1ccc(CSc2ncc(Cl)c(C(=O)Nc3sc4c(c3C(N)=O)CCCC4)n2)cc1`, the activation is inactive: -2.44%.
As for `Cc1cccc(N2CCN(Cc3nnc(-c4ccc5c(c4)OCO5)o3)CC2)c1C`, the figure is inactive: -21.2%.
As to `Cc1cccc(C#Cc2ccccc2)n1`, the activation was inactive: -9.3%.
For `CCc1nn2c(=O)cc(COc3ccc(/C=C(\C#N)C(=O)Nc4ccc(C)cc4)cc3)nc2s1` the value was inactive: -0.0994%.
As for `Cc1ccc(-c2cc(C(F)(F)F)c(C#N)c(SCC(=O)O)n2)cc1`, the figure is inactive: -20.8%.
For `CCc1ccc(NC(=O)Cn2c(=O)n(CC3CCCO3)c(=O)c3cc(OC)c(OC)cc32)cc1` (stereo unspecified) the value was inactive: -3.73%.
For the molecule `c1ccc(C(NCc2cccnc2)(c2ccccc2)c2ccccc2)cc1`, the activation was inactive: -24.8%.
Regarding `O=C(Cn1c(=O)c2cccn2c2ccc(F)cc21)N1CCN(c2ccccc2)CC1`, the activation was inactive: -22.8%.
Turning to `Cc1ccccc1CNC(=O)C(=O)NCC(c1cccs1)S(=O)(=O)c1ccc(Cl)cc1` (stereo unspecified), the activation is inactive: -0.846%.
Take `O=C(CN1C(=O)C2CCCCN2c2ccc(C(=O)N3CCCC3)cc21)NCc1cccc(F)c1` (stereo unspecified): the activation was inactive: -23.3%.
With `COc1ccc(NC(=O)Nc2ccccc2OCc2cc(=O)n3ccccc3n2)c(OC)c1`, the activation is inactive: -4.77%.
For `CC(C)(C)C1CCC(CC2=C(O)c3ccccc3C(=O)C2=O)CC1` (stereo unspecified), the activation is inactive: -10.8%.
As for `CCC1=C(c2ccc(C)cc2)S(=O)(=O)N=C1N1CCC(C(=O)NCc2ccccc2Cl)CC1`, the figure is inactive: -16.6%; as for `Cc1ccc(C)c(N2CCN(CCCNC(=O)c3nnc(Cc4ccc(F)cc4Cl)o3)CC2)c1`, inactive: 1.48%; as for `CCOC(=O)c1cc(S(=O)(=O)N2CCN(c3ccc(F)cc3)CC2)[nH]n1`, inactive: -26.8%.
Take `CCCN(CCC)CCNC(=O)C1CCCN(S(=O)(=O)c2cccc3nsnc23)C1` (stereo unspecified): the activation was inactive: -18.9%.
As for `CCCCCOC(=O)c1ccc(OC(=O)c2sc3ncn(Cc4cccc(F)c4)c(=O)c3c2C)cc1`, the figure is inactive: -3.53%.
On to `COc1ccc(OC)c(CNc2sc3c(c2C(=O)Nc2cc(OC)ccc2OC)CCCC3)c1`, for which the activation was inactive: -8.17%.
Turning to `COc1ccc(OC)c(NC(=O)N2CCC(CN3CCCCC3)CC2)c1`, the activation was inactive: 2.48%.
As for `CC(C)CC(=O)N[C@H](C(=O)N[C@H](C(=O)N[C@@H](CC(C)C)[C@@H](O)CC(=O)N[C@@H](C)C(=O)N[C@@H](CC(C)C)[C@@H](O)CC(=O)O)C(C)C)C(C)C` (Isovaleryl-VV[Sta]A[Sta]-OH), the figure is inactive: 10.1%; as for `CCOc1cc2[nH]c(=O)n(CCCC(=O)N3CCN(c4cccc(Cl)c4)CC3)c(=O)c2cc1OCC`, inactive: -17.9%.
